From PubChem BioAssay AID1346428 (National Center for Advancing Translational Sciences (NCATS), 2018)
“And” between values parts separate entries of the source, which are not always exact repeats. Equal values may be shown once. In all, about 48,000 compounds went through this assay and about 1,200 (2.5%) were called active. Another 2% or so got no clear call; they are omitted.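 Rule for the calls: active = activation of at least 60% and not above a set upper limit (about 1 call in 100 departs from these limits); inconclusive = activation of 40% to 60%, or above that upper limit; inactive = activation under 40%.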 The list shows a part of the results.

Biological target: Probable G-protein coupled receptor 32 (Homo sapiens) (UniProt O75388)
Chain of UniProt O75388 (O75388 whole entry, looked up): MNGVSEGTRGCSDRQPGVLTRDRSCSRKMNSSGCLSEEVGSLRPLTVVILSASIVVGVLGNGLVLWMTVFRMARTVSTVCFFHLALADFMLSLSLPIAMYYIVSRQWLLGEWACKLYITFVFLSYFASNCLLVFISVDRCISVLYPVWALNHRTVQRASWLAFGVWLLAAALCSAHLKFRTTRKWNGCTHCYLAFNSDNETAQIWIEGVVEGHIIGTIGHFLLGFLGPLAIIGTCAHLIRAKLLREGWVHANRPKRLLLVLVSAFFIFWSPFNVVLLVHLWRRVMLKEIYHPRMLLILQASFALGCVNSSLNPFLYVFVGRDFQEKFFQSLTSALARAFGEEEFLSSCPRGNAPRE
Assay: qHTS for Agonists of Human Resolvin D1 Receptor DRV1; note: 0% is about no effect
Conditions: CHO-K1 GPR32 beta-arrestin PathHunter luminescence, 90 min; at 76.9 µM; hits give high values; zero percent set by DMSO-only wells
Method in brief: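 GPR32 activation in stably transfected CHO-K1 cells, detected as beta-arrestin recruitment by enzyme-fragment complementation. Compound exposure: 90 min, 37 °C.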

SMILES	activation
COc1ccc(Cn2c(=O)[nH]c3cc(C(=O)N4CCN(c5ccccc5)CC4)ccc3c2=O)cc1	inactive: -0.0658%
O=C(NCC(c1cccnc1)N1CCOCC1)C(=O)Nc1ccc(F)cc1 (centres undefined)	inactive: -0.662%
Cn1c(SCc2cccc(F)c2)nc2c([nH]c3ccccc32)c1=O	inactive: -6.38%
CCCn1ccc2c(OCC(=O)Nc3ccccc3OCC)cccc2c1=O	inactive: 39.7%
COc1ccc(OC)c(CCNc2nccn(-c3ccc(C)c(C)c3)c2=O)c1	inactive: 38.1%
COc1ccc(CCNC(=O)C2CCN(c3nc4ccccc4nc3C(F)(F)F)CC2)cc1OC	inactive: -13%
O=C(Nc1ccc2nc(SCC(=O)N3CCCc4ccccc43)sc2c1)c1cccc(Cl)c1	inactive: -15%
Cc1ccc(NC(=O)CN2C(=O)CSc3ccc(S(=O)(=O)N4CCCC4)cc32)c(C)c1	inactive: -19.7%
COc1ccc(C(=O)Oc2c(Sc3ccccc3)c(C)nn2-c2ccccc2)cc1OC	inactive: 20.3%
COCCCNS(=O)(=O)c1ccc(N2CCCCS2(=O)=O)cc1	inactive: 6.38%
CCOC(=O)c1scc(-c2ccc(C)cc2)c1S(=O)(=O)Nc1cccc(CC)c1	inactive: -20%
COc1ccc(-n2c(SCC(=O)Nc3nnc(C)s3)nc3c([nH]c4ccccc43)c2=O)cc1	inactive: -18.8%
Cc1onc(-c2ccc(Br)cc2)c1C(=O)Nc1ccc(Br)cc1F	inactive: -20.5%
COc1cccc(CNc2ncc(-c3ccc(Br)cc3)n2C)c1	inactive: -59.6%
COc1cccc2sc(N3CCN(C(=O)CS(=O)(=O)c4ccc(Cl)cc4)CC3)nc12	inactive: 12.8%
CC(C)N(C(=O)c1cc2c(Cl)nc3ccccc3c2s1)C1CCCCC1	inactive: 4.35%
CCOC(=O)c1ccccc1Nc1cc(C)nc2nc(-c3ccco3)nn12	inactive: -9.7%
Cc1cccc(C(=O)Nc2cc3c(cc2N2CCOCC2)n(C)c(=O)n3C)c1	inactive: -27.4%
CC1=C(C(=O)Nc2cc(C)ccc2C)C2(CCCCCC2)OC1=O	inactive: -13.6%
Cc1cc(C)c(S(=O)(=O)N2CCN(Cc3nc4ccc(C)cc4o3)CC2)c(C)c1	inactive: 42.1%
CCOc1ccc(NC(=O)Cn2cc(C(=O)c3ccc(C)cc3)c(=O)c3cc4c(cc32)OCCO4)cc1	inactive: 10.5%

SMILES	activation
O=C(O)CC(NS(=O)(=O)c1ccc(Br)s1)c1ccccc1 (centres undefined)	inactive: 5.59%
O=C(NCCCN1CCN(c2ccccc2)CC1)c1nnc(Cc2ccc(F)cc2)o1	inactive: -11.5%
CCN1C(C(=O)c2ccccc2)=C(OC(=O)COc2ccccc2)c2ccccc2S1(=O)=O	inactive: -74.4%
Nc1c(-c2nc(-c3ccccc3)cs2)c2ccccn2c1C(=O)c1ccc2c(c1)OCO2	inactive: -3.73%
COc1ccc(-n2c(C)nc3cc(C(=O)NC4CCCC4)ccc32)cc1	inactive: 4.59%
CC(C)OCCCN(C)C1CCN(S(=O)(=O)c2csc(C(N)=O)c2)CC1	inactive: -48.1%
CCOCCCNC(=O)Nc1cc(C(=O)NCc2ccc(C(C)C)cc2)ccc1N1CCCC1	inactive: -27.9%
Cc1ccc(N2CCN(S(=O)(=O)c3ccc4oc(=O)c5ncn(C)c5c4c3)CC2)c(C)c1	inactive: -3.38%
CC(=O)c1ccc(C(=O)N(Cc2cccnc2)c2nc3c(Cl)cccc3s2)cc1	inactive: -30.7%
Cc1cccc(-c2nnc(SCC(=O)N3CCCc4ccccc43)o2)c1	inactive: 14.3%
CSc1cccc(NC(=O)Cn2nc(C)c3sc4ccccc4c3c2=O)c1	inactive: -0.605%
COc1cc2c(cc1OC)C(COc1ccc(F)cc1)N(C(=O)c1ccccc1F)CC2 (centres undefined)	inactive: -6.16%
CCCCCCCCCCCCCCCC(=O)NCCO	inactive: 17.6% and inactive: -0.646%
CCCCCCCCCCCCCCCC(=O)OC(CC(=O)O)C[N+](C)(C)C (centres undefined)	inactive: 3.8%
Cc1cc(C)cc(NC(=O)C2CCN(c3cc(C)nc4c(-c5ccc(Cl)cc5)c(C)nn34)CC2)c1	inactive: 5.13%
Cc1ccc(S(=O)(=O)c2nnn3c2nc(NCc2cccs2)c2sccc23)cc1C	inactive: -1.64%
COC(=O)C(C)NC(=O)N1CCN(c2nnc(C)c3c(C)n(-c4ccc(Cl)cc4)nc23)CC1 (centres undefined)	inactive: 7.2%
Cn1nnnc1SCCNCc1ccccc1OCc1ccc(Cl)cc1Cl	inactive: 38.9%
CCOc1ccc(NC(=O)Cn2cc(C(=O)c3ccc(F)cc3)c(=O)c3cc4c(cc32)OCCO4)cc1	inactive: 12.1%
COc1ccc(-c2cc(C(F)(F)F)n3nc(C(=O)O)c(Cl)c3n2)cc1OC	inactive: -34%
Cc1ccc(-n2ncc(C(=O)N3CCN(Cc4ccccc4)CC3)c2C2CCN(C(=O)OC(C)(C)C)CC2)cc1	inactive: -19.1%

SMILES	activation
CC(=O)c1cc(-c2ccccc2)n(CCC(=O)Nc2ccc(C(C)C)cc2)c1C	inactive: -11.4%
Cc1ccc(-n2ccnc(NCCc3ccc(S(N)(=O)=O)cc3)c2=O)c(C)c1	active: 80.5%
COc1ccc(NC(=O)Cn2cnc3ccc(S(=O)(=O)N4CCC(C)CC4)cc3c2=O)cc1Cl	inactive: 26.7%
CC(C)(C)OC(=O)N1CCC(c2c(C(=O)NCCN3CCCC3)cnn2-c2ccc(Cl)cc2)CC1	inactive: -26.6%
CC(C)CC(NP(=O)(O)O[C@@H]1O[C@@H](C)[C@H](O)[C@@H](O)[C@H]1O)C(=O)NC(Cc1c[nH]c2ccccc12)C(=O)O (some centres undefined)	inactive: -6.7%
CCOc1ccc(/C=C/c2nc(C#N)c(NC3CCCCC3)o2)cc1	inactive: -25%
Cc1oc(-c2ccc(C(=O)NCc3ccc(F)cc3)cc2)nc1CS(=O)c1ccccc1 (centres undefined)	inactive: 49%
Cc1cc(C)cc(C(=O)Nc2c(C(=O)Nc3ccccc3F)oc3ccccc23)c1	inactive: 0.437%
CC(=O)c1cc2c(cc1N/C(=N/S(=O)(=O)c1ccccc1)c1ccc(Cl)cc1)OCO2	inactive: -23.3%
COc1ccccc1-c1nnc(SCC(N)=O)o1	inactive: 9.85%
CCN(CC)CCNC(=O)c1ccc(-c2nc(CS(=O)(=O)c3ccc(C)cc3)c(C)o2)cc1	inactive: -8.77%
CC(C)c1ccc(NC(c2nnc(-c3ccccc3)o2)c2ccc(F)cc2Cl)cc1 (centres undefined)	inactive: -27.6%
COc1ccccc1OCCn1c(C(C)Oc2ccccc2)nc2ccccc21 (centres undefined)	inactive: -25.7%
Cc1ccccc1NC(=O)CSc1nc2ccc(NC(=O)c3ccccc3)cc2s1	inactive: 1.8%
COc1ccc(NC(=O)C2=C(C)C(=O)OC23CCN(C(C)C)CC3)cc1Cl	inactive: -25.7%
CC1CCC(Nc2ncnc3onc(-c4ccc(Cl)cc4)c23)CC1 (centres undefined)	inactive: 27.9%
COc1ccc(-c2coc3c2c(C)cc2oc(=O)c(C)c(C)c23)cc1	inactive: 12.6%
CC(=O)OCc1cnc(C)c2oc(=O)c(C(=O)Nc3ccc(C)cc3Cl)cc12	inactive: -7.51%
Cc1ccccc1CN1C(=O)C(O)(CC(=O)c2ccccc2)c2cc(Cl)ccc21 (centres undefined)	inactive: -9.11%
Cc1ccc(CNC(=O)c2oc3ccc(S(=O)(=O)N4CCC(C)CC4)cc3c2C)cc1	inactive: -5.19%
CCCCN1C(=O)CN(C2CCCCCC2)C(=O)C1c1ccc(OC(C)C)c(OC)c1 (centres undefined)	inactive: -17.1%

SMILES	activation
Cc1cccc(OCC(=O)Nc2ccc3nc(Nc4cccc(C(F)(F)F)c4)cc(C)c3c2)c1	active: 75.7%
CCCCNC(=O)c1cc2c(=O)n3cccc(C)c3nc2s1	inactive: 5.11%
COc1ccccc1CNC(=O)c1ccc2c(c1)N(Cc1cc(C)ccc1C)C(=O)c1ccccc1S2	inactive: -24.4%
Brc1ccc([C@H]2CN3CCSC3=N2)cc1	inactive: 0.537%
C=CC[C@H](N)C(=O)O	inactive: 10.4%
O=C(Cc1ccccc1)N(Cc1cccnc1)c1nc2ccc(Cl)cc2s1	inactive: -21%
CC(=O)c1cccc(NC(=O)CSc2nnc3ccc(-c4ccc(F)cc4)nn23)c1	inactive: -4.86%
CCCOc1ccc(C(=O)Nc2ccc3oc(-c4ccc5ccccc5c4)nc3c2)cc1	inactive: -10.4%
COc1ccc(NC(=O)c2ccc3c(SCC(=O)O)c4c(nc3c2)CCCC4)cc1OC	inactive: -8.74%
CCOC(=O)c1cccc(-n2nnc3c(sc4nc(C)c(Br)c(C)c43)c2=O)c1	inactive: -6.82%
O=C(Nc1ccc(Br)cc1F)c1cc(S(=O)(=O)NC2CCCC2)ccc1F	inactive: -7.52%
Cc1sc2ncn(CC(=O)Nc3ccc(F)cc3Cl)c(=O)c2c1S(=O)(=O)N1CCN(c2ncccn2)CC1	inactive: -12.7%
CCOC(=O)c1c(C)oc2ncnc(N3CCN(c4ccc(C)cc4C)CC3)c12	inactive: -1.42%
O=C(NCCc1ccccc1)c1cc(-c2ccc(Br)cc2)on1	inactive: 3.85%
CCOC(=O)c1ccccc1NC(=O)Cn1c(=O)n(CCC(=O)NCc2ccccc2OC)c(=O)c2ccccc21	inactive: -3.23%
Cn1c(=O)c2c(nc(Oc3ccc(C#N)cc3)n2Cc2ccc(Cl)cc2Cl)n(C)c1=O	inactive: -8.05%
COc1cccc(-c2nnc3n(Cc4ccc(C)cc4)c(=O)c4ccccc4n23)c1O	inactive: 9.2%
CCN1CCN(c2csc3ccc(F)cc3c2=O)CC1	inactive: -14.3%
CCCCN(Cc1cccs1)S(=O)(=O)c1cc(-c2cc(C)no2)ccc1C	inactive: -20.3%
Cc1cccn2c(=O)cc(CSc3nnc(NC(=O)COc4ccc(F)cc4)s3)nc12	inactive: -10.5%
COc1cccc(CNC(=O)c2[nH]c3cc(C)ccc3c2Sc2ccccc2)c1	inactive: -4.82%
